Source: patent US12503498B2, “Fc containing polypeptides with altered glycosylation and reduced effector function” (Genzyme Corporation, priority 2012, dated 2025)

Tested on: human PBMC
Assay: T cell depletion/Cytokine Release assay with human PBMC
Type: cell-based
Settings: cells stained at D4 for abTCR expression
Description: Fc-engineered mutants were assessed through a PBMC proliferation assay and a cytokine release assay. In the PBMC proliferation assay, human PBMC were cultured with increasing concentrations of therapeutic antibody for 72 hours, ^3H-thymidine was added and cells were harvested 18 hours later. For the T cell depletion/Cytokine Release assay, human PBMC were cultured with increasing concentrations of therapeutic antibody and were analyzed daily for cell counts and viability (Vi-Cell. Beckman Coulter) out to day 7. Cell supernatants were also harvested, stored at −20° C. and analyzed on an 8-plex cytokine panel (Bio-Rad).
Normal donor PBMC were thawed and treated under the following conditions (all in media containing complement): Untreated: BMA031, moIgG2b 10 ug/ml; OKT3, moIgG2a 10 ug/mi; H66, huIgG1 deltaAB 10 ug/ml, 1 ug/ml and 0.1 ug/ml; H66, huIgG1 S298N/T299A/Y300S 10 ug/ml, 1 ug/ml and 0.1 ug/ml.
Cytokines were harvested at day 2 (D2) and day 4 (D4) for Bioplex Analysis (IL2. IL4, IL6, IL8. IL10, GM-CSF, IFNg, TNFa). Cells were stained at D4 for CD4, CD8, CD25 and abTCR expression.

B1: H66 S298N/T299A/Y300S: H66 anti-αβTCR mutant S298N/T299A/Y300S, heavy chain SEQ ID NO 26 (antibody)
heavy: EVQLLQSGGGLVQPGGSLRLSCAASGYKFTSYVMHWVRQAPGKGLEWVGYINPYNDVTKYNEKFKGRFTLSRDNSKNTLYLQMNSLRAEDTAVYYCARGSYYDYDGFVYWGQGTLVTVSSASTKGPSVFPLAPSSKSTSGGTAALGCLVKDYFPEPVTVSWNSGALTSGVHTFPAVLQSSGLYSLSSVVTVPSSSLGTQTYICNVNHKPSNTKVDKKV[sequence of human IgG1 Fc with S298N T299A Y300S (EU numbers) omitted]
light: EIVLTQSPATLSLSPGERATLSCSATSSVSYMHWYQQKPGQAPRRLIYDTSKLASGVPARFSGSGSGTSYTLTISSLEPEDFAVYYCQQWSSNPLTFGGGTKVEIKRTVAAPSVFIFPPSDEQLKSGTASVVCLLNNFYPREAKVQWKVDNALQSGNSQESVTEQDSKDSTYSLSSTLTLSKADYEKHKVYACEVTHQGLSSPVTKSFNRGEC
binding to abTCR on PBMC: binding to abTCR
